This is one part of the list. Sequences were assembled here from the parent chain. Values near 0.05 are background.
B1: TEV protease; numbered along this chain (parent)
chain: MGESLFKGPRDYNPISSSICHLTNESDGHTTSLYGIGFGPFIITNKHLFRRNNGTLVVQSLHGVFKVKDTTTLQQHLVDGRDMIIIRMPKDFPPFPQKLKFREPQREERICLVTTNFQTKSMSSMVSDTSCTFPSGDGIFWKHWIQTKDGQCGSPLVSTRDGFIVGIHSASNFTNTNNYFTSVPKNFMELLTNQEAQQWVSGWRLNADSVLWGGHKVFMVKPEEPFQPVKEATQL

Variants of: B1
Experiment: raw area under fraction-flipped curve 0-4 h after induction (AUC4h, not background-subtracted), DNA-recorder readout of cleavage of the substrate (dimensionless); higher = more cleavage of the substrate by the protease variant
Settings: temperature: 34 °C; time window: 0-4 h after rhamnose induction
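Further: Bxb1 expression induced with 0.2% (w/v) L-rhamnose at OD600 near 0.5, cultures sampled hourly, flipped fraction per protease–substrate barcode pair counted by paired-end Illumina sequencing.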

| Variant | area with substrate ENLYFES | area with substrate ENLYFFS | area with substrate ENLYFGS | area with substrate ENLYFIS | area with substrate ENLYFKS | area with substrate ENLYFPS | area with substrate ENLYFRS | area with substrate ENLYFTS | area with substrate ENLYFYS | area with substrate ENLYFMS |
| --- | --- | --- | --- | --- | --- | --- | --- | --- | --- | --- |
| MGESLFKGPRDYNPISSSICHLTNESDGHTTSLYGIGFGPFIITNKHLFRRNNGTLVVQSLHGVFKVKDTTTLQQHLVDGRDMIIIRMPKDFPPFPQKLKFREPQREERICLVTTNFQTKSMSSMVSDTSCTFPSGDGIFWKHWIQTKDGQCGSPLVSTRDGFIVGIHSASNFTNTNNYFTSVPKNFRELLTNQEAQQWVSGWRLNADSVLWGGHKVFMVKPEEPFQPVKEATQL [M188R] | 0.073 | 0.0738 | 0.0538 | 0.0484 | 0.0693 | 0.0571 | 0.0588 | 0.0452 | 0.0654 | – |
| MGESLFKGPRDYNPISSSICHLTNESDGHTTSLYGIGFGPFIITNKHLFRRNNGTLVVQSLHGVFKVKDTTTLQQHLVDGRDMIIIRMPKDFPPFPQKLKFREPQREERICLVTTNFQTKSMSSMVSDTSCTFPSGDGIFWKHWIQTKDGQCGSPLVSTRDGFIVGIHSASNFTNTNNYFTSVPKNFMELLTNQSAQQWVSGWRLNADSVLWGGHKVFMVKPEEPFQPVKEATQL [E195S] | 0.0637 | 0.0695 | – | 0.0444 | – | 0.0584 | 0.053 | 0.0544 | 0.0815 | 0.0653 |
| MGESLFKGPRDYNPISSSICHLTNESDGHTTSLYGIGFGPFIITNKHLFRRNNGTLVVQSLHGVFKVKDTTTLQQHLVDGRDMIIIRMPKDFPPFPQKLKFREPQREERICLVTTNFQTKSMSSMVSDTSCTFPSGDGIFWKHWIQTKDGQCGSPLVSTRDGFIVGIHSASNFTNTNNYFTSVPLNFMELLTNQEAQQWVSGWRLNADSVLWGGHKVFMVKPEEPFQPVKEATQL [K185L] | 0.0693 | 0.0642 | 0.0661 | – | – | – | 0.0669 | 0.0632 | – | 0.0659 |
| MGESLFKGPRDYNPISSSICHLTNESDGHTTSLYGIGFGPFIITNKHLFRRNNGTLVVQSLHGVFKVKDTTTLQQHLVDGRDMIIIRMPKDFPPFPQKLKFREPQREERICLVTTNFQTKSMSSMVSDTSCTFPSGDGIFWKHWIQTKDGQCGSPLVSTRDGFIVGIHSASNFTNTNNYFTSVPKNFMELLTNQEAQQWVSGWRLNADSVLAGGHKVFMVKPEEPFQPVKEATQL [W212A] | 0.0491 | – | – | – | – | – | – | – | 0.0614 | 0.051 |
| MGESLFKGPRDYNPISSSICHLTNESDGHTTSLYGIGFGPFIITNKHLFRRNNGTLVVQSLHGVFKVKDTTTLQQHLVDGRDMIIIRMPKDFPPFPQKLKFREPQREERICLVTTNFQTKSMSSMVSDTSCTFPSGDGIFWKHWIQTKDGQCGSPLVSTRDGFIVGIHSASNFTNTNNYFTSVPKNFMELLTNQEAQQWVSGWRLNADSVLNGGHKVFMVKPEEPFQPVKEATQL [W212N] | 0.0788 | – | – | 0.0552 | – | – | – | – | – | – |
| MGESLFKGPRDYNPISSSICHLTNESDGHTTSLYGIGFGPFIITNKHLFRRNNGTLVVQSLHGVFKVKDTTTLQQHLVDGRDMIIIRMPKDFPPFPQKLKFREPQREERICLVTTNFQTKSMSSMVSDTSCTFPSGDGIFWKHWIQTKDGQCGSPLVSTRDGFIVGIHSASNFTNTNNYFTSVPKNFMELLTKQEAQQWVSGWRLNADSVLWGGHKVFMVKPEEPFQPVKEATQL [N193K] | 0.0771 | – | – | 0.0642 | – | – | 0.0308 | – | – | – |
| MGESLFKGPRDYNPISSSICHLTNESDGHTTSLYGIGFGPFIITNKHLFRRNNGTLVVQSLHGVFKVKDTTTLQQHLVDGRDMIIIRMPKDFPPFPQKLKFREPQREERICLVTTNFQTKSMSSMVSDTSCTFPSGDGIFWKHWIQTKDGQCGSPLVSTRDGFIVGIHSASNFTNTNNYFTSVPKFFMELLTNQEAQQWVSGWRLNADSVLWGGHKVFMVKPEEPFQPVKEATQL [N186F] | 0.073 | – | – | 0.0384 | – | 0.0689 | – | – | 0.0806 | 0.0652 |
| MGESLFKGPRDYNPISSSICHLTNESDGHTTSLYGIGFGPFIITNKHLFRRNNGTLVVQSLHGVFKVKDTTTLQQHLVDGRDMIIIRMPKDFPPFPQKLKFREPQREERICLVTTNFQTKSMSSMVSDTSCTFPSGDGIFWKHWIQTKDGQCGSPLVSTRDGFIVGIHSASNFTNTTNYFTSVPKNFMELLTNQEAQQWVSGWRLNADSVLWGGHKVFMVKPEEPFQPVKEATQL [N177T] | 0.0657 | – | 0.0476 | 0.0378 | – | 0.0557 | 0.055 | – | 0.0444 | 0.0835 |
| MGESLFKGPRDYNPISSSICHLTNESDGHTTSLYGIGFGPFIITNKHLFRRNNGTLVVQSLHGVFKVKDTTTLQQHLVDGRDMIIIRMPKDFPPFPQKLKFREPQREERICLVTTNFQTKSMSSMVSDTSCTFPSGDGIFWKHWIQTKDGQCGSPLVSTRDGFIVGIHSASNFTNTNNYFTSVPKNFMEDLTNQEAQQWVSGWRLNADSVLWGGHKVFMVKPEEPFQPVKEATQL [L190D] | 0.058 | 0.0321 | 0.0591 | 0.0621 | – | – | – | 0.0528 | 0.0565 | 0.0451 |
| MGESLFKGPRDYNPISSSICHLTNESDGHTTSLYGIGFGPFIITNKHLFRRNNGTLVVQSLHGVFKVKDTTTLQQHLVDGRDMIIIRMPKDFPPFPQKLKFREPQREERICLVTTNFQTKSMSSMVSDTSCTFPSGDGIFWKHWIQTKDGQCGSPLVSTRDGFIVGIHSASNFTNTNNYFTSVPKNFMENLTNQEAQQWVSGWRLNADSVLWGGHKVFMVKPEEPFQPVKEATQL [L190N] | 0.0599 | 0.0609 | – | 0.0617 | – | 0.0539 | 0.0489 | – | – | – |
| MGESLFKGPRDYNPISSSICHLTNESDGHTTSLYGIGFGPFIITNKHLFRRNNGTLVVQSLHGVFKVKDTTTLQQHLVDGRDMIIIRMPKDFPPFPQKLKFREPQREERICLVTTNFQTKSMSSMVSDTSCTFPSGDGIFWKHWIQTKDGQCGSPLVSTRDGFIVGIHSASNFTNTNNYFTSVPKNFMEFLTNQEAQQWVSGWRLNADSVLWGGHKVFMVKPEEPFQPVKEATQL [L190F] | 0.0648 | – | – | 0.0489 | 0.0558 | – | – | – | 0.0476 | 0.0662 |

Same assay, conditions: temperature: 34 °C; time window: 0-4 h after rhamnose induction

| Variant | area with substrate ENLYFHS | area with substrate ENLYFNS | area with substrate ENLYFSS | area with substrate ENLYFVS | area with substrate ENLYFWS | area with substrate ENLYFLS |
| --- | --- | --- | --- | --- | --- | --- |
| MGESLFKGPRDYNPISSSICHLTNESDGHTTSLYGIGFGPFIITNKHLFRRNNGTLVVQSLHGVFKVKDTTTLQQHLVDGRDMIIIRMPKDFPPFPQKLKFREPQREERICLVTTNFQTKSMSSMVSDTSCTFPSGDGIFWKHWIQTKDGQCGSPLVSTRDGFIVGIHSASNFTNTNNYFTSVPLNFMELLTNQEAQQWVSGWRLNADSVLWGGHKVFMVKPEEPFQPVKEATQL [K185L] | 0.0755 | 0.0732 | 0.077 | 0.0564 | 0.0395 | – |
| MGESLFKGPRDYNPISSSICHLTNESDGHTTSLYGIGFGPFIITNKHLFRRNNGTLVVQSLHGVFKVKDTTTLQQHLVDGRDMIIIRMPKDFPPFPQKLKFREPQREERICLVTTNFQTKSMSSMVSDTSCTFPSGDGIFWKHWIQTKDGQCGSPLVSTRDGFIVGIHSASNFTNTNNYFTSVPKNFMELLTNQEAQQWVSGWRLNADSVLNGGHKVFMVKPEEPFQPVKEATQL [W212N] | – | – | – | – | 0.0495 | – |
| MGESLFKGPRDYNPISSSICHLTNESDGHTTSLYGIGFGPFIITNKHLFRRNNGTLVVQSLHGVFKVKDTTTLQQHLVDGRDMIIIRMPKDFPPFPQKLKFREPQREERICLVTTNFQTKSMSSMVSDTSCTFPSGDGIFWKHWIQTKDGQCGSPLVSTRDGFIVGIHSASNFTNTNNYFTSVPKFFMELLTNQEAQQWVSGWRLNADSVLWGGHKVFMVKPEEPFQPVKEATQL [N186F] | – | – | – | 0.0547 | – | – |
| MGESLFKGPRDYNPISSSICHLTNESDGHTTSLYGIGFGPFIITNKHLFRRNNGTLVVQSLHGVFKVKDTTTLQQHLVDGRDMIIIRMPKDFPPFPQKLKFREPQREERICLVTTNFQTKSMSSMVSDTSCTFPSGDGIFWKHWIQTKDGQCGSPLVSTRDGFIVGIHSASNFTNTTNYFTSVPKNFMELLTNQEAQQWVSGWRLNADSVLWGGHKVFMVKPEEPFQPVKEATQL [N177T] | 0.0586 | – | – | – | 0.0555 | – |
| MGESLFKGPRDYNPISSSICHLTNESDGHTTSLYGIGFGPFIITNKHLFRRNNGTLVVQSLHGVFKVKDTTTLQQHLVDGRDMIIIRMPKDFPPFPQKLKFREPQREERICLVTTNFQTKSMSSMVSDTSCTFPSGDGIFWKHWIQTKDGQCGSPLVSTRDGFIVGIHSASNFTNTNNYFTSVPKNFMEDLTNQEAQQWVSGWRLNADSVLWGGHKVFMVKPEEPFQPVKEATQL [L190D] | – | 0.0504 | 0.0624 | – | – | 0.0553 |
